# Measured values as given in the supplement of paper PMC3334620.
# The full ranking holds about 33,000 sequences; the median of “E-score (-0.5 to 0.5)” is about -0.035, and the highest 2% start at about 0.35. The list shows a part of the results.
# Biological target: T1, Pdr3 (UniProt P33200)
# T1 sequence: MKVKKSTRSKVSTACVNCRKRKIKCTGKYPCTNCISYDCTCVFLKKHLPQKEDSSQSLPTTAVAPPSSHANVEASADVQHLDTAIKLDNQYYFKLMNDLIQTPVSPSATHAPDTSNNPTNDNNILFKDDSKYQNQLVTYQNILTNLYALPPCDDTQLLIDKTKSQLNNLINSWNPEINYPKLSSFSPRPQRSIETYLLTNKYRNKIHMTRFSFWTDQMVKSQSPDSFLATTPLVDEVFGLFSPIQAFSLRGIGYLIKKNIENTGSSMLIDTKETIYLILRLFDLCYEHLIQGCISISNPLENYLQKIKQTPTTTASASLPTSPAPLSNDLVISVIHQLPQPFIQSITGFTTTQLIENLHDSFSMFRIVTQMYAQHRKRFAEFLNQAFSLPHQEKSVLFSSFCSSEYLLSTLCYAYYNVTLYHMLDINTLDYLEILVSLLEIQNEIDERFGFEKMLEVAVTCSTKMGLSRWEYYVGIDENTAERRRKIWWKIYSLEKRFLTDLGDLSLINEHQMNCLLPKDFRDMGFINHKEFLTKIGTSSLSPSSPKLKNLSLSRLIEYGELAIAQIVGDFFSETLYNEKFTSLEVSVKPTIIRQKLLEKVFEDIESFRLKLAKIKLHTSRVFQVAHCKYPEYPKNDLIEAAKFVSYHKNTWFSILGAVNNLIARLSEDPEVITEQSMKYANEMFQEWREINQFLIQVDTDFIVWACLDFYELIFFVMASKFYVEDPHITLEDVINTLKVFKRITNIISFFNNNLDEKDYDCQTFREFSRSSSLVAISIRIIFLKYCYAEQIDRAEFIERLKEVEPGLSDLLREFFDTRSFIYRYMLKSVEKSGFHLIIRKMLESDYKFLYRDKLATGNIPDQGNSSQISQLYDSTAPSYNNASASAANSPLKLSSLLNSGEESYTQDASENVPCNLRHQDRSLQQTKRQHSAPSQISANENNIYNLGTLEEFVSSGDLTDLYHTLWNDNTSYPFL
# Assay: PBM E-score (8-mer binding enrichment) (E-score (-0.5 to 0.5)); higher = stronger / more preferred TF binding; most listed sequences are background and not binding sites
# Conditions: protein concentration: 200 nM; construct: GST-full length
# Method in brief: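 Universal all-10-mer Agilent arrays, double-stranded by primer extension on fresh or once-stripped slides, were probed with about 100-200 nM GST-tagged yeast transcription factors made by PURExpress. Fluorescent anti-GST detected bound protein, and masliner normalised the scans. E-scores from the Universal PBM Analysis Suite were given to each ungapped eight-base word pooled with its reverse complement.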
row,Sequence,PBM E-score
1,AGCGTATG,-0.118
2,AGCATCGC,-0.00236
3,AAACGTTG,-0.142
4,CCCGGGTA,0.438
5,CATTCTAC,-0.206
6,CGTAGCTA,-0.168
7,AATAATCC,0.086
8,GTACCTAA,-0.291
9,ACCCGCCC,0.348
10,AACTCTGG,-0.0918
11,CTGGCTAC,-0.186
12,CGGGCTGC,0.211
13,GATTTATA,0.0785
14,AACCCTGC,-0.0701
15,CACATATG,-0.331
16,ACAATCCT,-0.131
17,ATGTGTCA,-0.177
18,AGTTTCCA,0.0305
19,ATTGCTGG,-0.163
20,ACGTCTTG,-0.178
21,TATCCACA,-0.09
22,CTATGGAC,-0.134

row,Sequence,PBM E-score
1,CTGCGAAA,-0.0331
2,CGATCACC,0.0507
3,ACGACTCT,-0.201
4,AGCTGACT,-0.00609
5,CTGTAGTA,-0.0687
6,AGCACTAG,-0.211
7,GTTCATCA,-0.0341
8,GCAGATAC,0.0171
9,CTGATATA,-0.168
10,CCGGCGTA,0.236
11,GATTTTTA,0.00282
12,CCTTCGAG,-0.131
13,AACGTGCA,-0.101
14,GATAGCCC,-0.0993
15,CATCTGGA,0.0298
16,CTGTATCA,-0.224
17,GAAGAATC,0.194
18,CACTCTGA,-0.122
19,CAGTTCGA,-0.0829
20,ATTGTTGG,0.103
21,AGTGGGAA,0.00546
22,CGATACCA,0.0304

row,Sequence,PBM E-score
1,ACATTCTA,-0.24
2,AACCGTGC,0.0658
3,CCAATAGA,-0.0305
4,CTGACTAA,0.0466
5,CGGTAGCC,0.132
6,GGGTATAA,0.00025
7,GACTACCA,-0.201
8,CCGGGTAA,0.397
9,GAGGCTGC,0.0172
10,CGAGCCCC,-0.0391
11,GTAGCTAC,-0.115
12,CCGCCTAG,0.0446
13,AATGGTCC,0.183
14,AGCAGTAG,-0.236
15,AAGCGCAA,0.0102
16,AGACCAGA,-0.201
17,GATCCGCC,0.331
18,ACTGTGGA,-0.229
19,AGGGAGGA,-0.291
20,ATTCCCTG,0.017
21,CGCCTGAC,0.0819
22,GTCGAGCA,-0.326

row,Sequence,PBM E-score
1,AGACGACT,-0.0111
2,GGATATCC,0.262
3,GAATATCC,0.17
4,ATTGCTAA,-0.133
5,CACATTAG,-0.159
6,CGGAACTA,0.473
7,CGGTGGAA,0.086
8,GAAGATAA,0.164
9,CAAGTCAG,-0.117
10,AACTTAAG,-0.229
11,AGGGAAAG,-0.106
12,ACGCAACT,-0.0132
13,CTTGGATC,0.00749
14,ATCTGCGA,-0.171
15,CCCGATCG,0.234
16,ATGGAGTC,0.174
17,GAACTGCC,0.146
18,GACCGATA,0.0564
19,CAAACGCA,-0.165
20,CATTGGAG,-0.0295
